# This is one part of the list.
# Test system: PF3D7_0420300 AP2 domain 1 (GST-tagged)
# Experiment: gcPBM binding intensity (ln(normalized median fluorescence intensity)); higher = stronger DNA binding
# Outline: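 GST-fused DNA-binding domains of P. falciparum, expressed in E. coli, were applied at about 25 μg on average for 1 h to an Agilent 4 × 180k array of primer-extended double-stranded 36-bp intergenic genomic probes and negative controls. Binding intensity is the highest Masliner-normalised natural-log median intensity across replicate spots of either probe orientation, measured with Alexa488 anti-GST antibody and a 488 nm scan.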
row,Sequence,gcPBM binding intensity (ln)
1,AAAATATAATATAATGCACACATAAACAAAAAAAAA [CACACA_site8161],9.78
2,TTTTTTTTTTTTTTGGGTACATAATAATAACAAGTG [XGTACX_site1034],8.85
3,TTTTATTTAACTCATAATTTTTTAAAAAACAATTAT [XGTACX_negctrl_site19],8.88
4,CATGTAATATTAAACACACACTCATATAACTCAATA [CACACA_site4212],9.68
5,CACATATACTTCTGTGCACACGAATATTTTTCTTCT [CACACA_site1408],9.61
6,ATACATATATAAATACGTACATATATAATTATATAT [XGTACX_site8178],9.28
7,AAATGAGAAGAAATACGTACATATAATAAAATAATT [XGTACX_site4439],9.53
8,ATGCATAAATTTTGAAGTACAAAAAAAAAAAATAAA [XGTACX_site7282],9.05
9,TTTCATTGGTTTATAAAATTATGAGATCTTAAAGAC [CACACA_negctrl_site1484],8.92
10,TCTGTAAAGTAATGGACACACAATATATCCATTTAT [CACACA_site1536],9.27
11,GAATAATATGGACATACACACATATACATACAGATA [CACACA_site5200],9.91
12,ATATATATATATATATGTACATATATTTATATTTAT [XGTACX_site6179],8.92
13,GCTACGTAAAAAATATGTACATATGAAATATTTTGC [XGTACX_site5111],8.98
14,TTATATATCTATAATACACACATAATAATATATTTA [CACACA_site7423],9.24
15,CATATATATATATATTGTACAAGATTGTTTTTTTAT [XGTACX_site3913],9.19
16,ATGATCATAAGACACACACACAAAAAAAAAAAAAAA [CACACA_site6936],9.59
17,TCTGTGCACGCATGAAGTACAAAAAAGGTTTCCAGT [XGTACX_site5049],9.32
18,TATATTTTTTTAATATGTACATATATATATAAAACA [XGTACX_site2171],8.86
19,CTATATACTAAATGCACACTTATATATTTATATATA [CACACA_site2454],9.36
20,ATATATAATAAATACACACACATGTATTTATAAATA [CACACA_site5135],9.62
21,TGAATTATAAATTATAGTACTTTATAATATGAACAT [XGTACX_site2317],8.92
22,ATATAAATAAATTAGTGAAAAAAAAAAAATTTTTTT [CACACA_negctrl_site945],9.12
23,CTCCATATGAAACACACACACAAATGAAAAAAATAT [CACACA_site3018],10.1
24,AATTAACAAAGACACACACACACACGCACAAAAAAA [CACACA_site6388],10.2

# Reference: the supplement of paper PMC11417369
